# Measured values taken from PubChem BioAssay AID602310 (National Center for Advancing Translational Sciences (NCATS), 2012).
# In all, about 410,000 compounds went through this assay and about 310 (0.076%) were called active. The inconclusive results got no clear call from the source; some entries with a clear call stand among them for comparison. Calls come from the whole dose curve; as a rule, active = well fitted curve in the direction sought with a large enough effect; inconclusive = small, poorly fitted or top-dose-only effect; inactive = flat fitted curve, though single readings scatter. A potency beside an inconclusive call is a rough fit, not a confirmed value.
# Target: DNA dC->dU-editing enzyme APOBEC-3G (Homo sapiens) (UniProt Q9HC16)
# Sequence of UniProt Q9HC16 (Q9HC16 whole entry, looked up): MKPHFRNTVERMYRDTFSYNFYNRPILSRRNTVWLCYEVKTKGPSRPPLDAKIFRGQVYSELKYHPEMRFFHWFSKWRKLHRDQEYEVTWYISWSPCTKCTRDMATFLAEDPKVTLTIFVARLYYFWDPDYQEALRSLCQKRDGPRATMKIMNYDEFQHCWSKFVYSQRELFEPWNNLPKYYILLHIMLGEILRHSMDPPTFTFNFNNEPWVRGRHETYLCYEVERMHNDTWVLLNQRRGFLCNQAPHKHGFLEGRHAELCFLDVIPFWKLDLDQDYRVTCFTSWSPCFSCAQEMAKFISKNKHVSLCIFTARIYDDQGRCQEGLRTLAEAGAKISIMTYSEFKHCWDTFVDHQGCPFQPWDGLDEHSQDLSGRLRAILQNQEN
# Assay: qHTS for Inhibitors of Vif-A3G Interactions: qHTS; note: nearly all actives have a fitted effect of over 60% in size
# Conditions: HeLa A3G-eYFP + Vif (tagged APOBEC3G with the HIV-1 protein that degrades it), YFP fluorescence, overnight; series mostly up to 46.1 µM
# Summary of the method: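 Read-out is eYFP fluorescence (Ex 488/Em 500-530) from Vif-expressing HeLa A3G-eYFP cells; more signal means A3G escaped Vif-mediated degradation. Cells plated overnight, compound pinned in, incubated overnight at 37 deg C.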
# Potency is the fitted concentration of half-maximal effect; tags give direction and shape of the fitted curve.
row,Structure (SMILES),Potency
1,CC1(C)CC(=O)C2=C(C1)c1c(ccc3ncccc13)NC2c1cccs1 (configuration not stated),"inconclusive: 2.51 µM [inhibitor, full curve, poor fit]"
2,COc1cc2ccccc2cc1C(=O)N(CCN(C)C)c1nc2c(OC)ccc(OC)c2s1,"inconclusive: 22.4 µM [inhibitor, single point]"
3,CC(=O)Nc1cccc(NC(=O)CSc2ccc(-c3sc(-c4ccccc4)nc3C)nn2)c1,"inconclusive: 12.6 µM [inhibitor, partial curve, poor fit]"
4,Nc1cc(Nc2ccccc2)c2nonc2c1[N+](=O)[O-],"inconclusive: 28.2 µM [inhibitor, single point]"
5,Cc1nn2c(=O)cc(COC(=O)c3cccc(NC(=O)c4ccc(F)cc4)c3)nc2s1,inactive
6,CC(C)CSC1=NSC2=NC(=O)/C(=C\c3coc4ccccc4c3=O)C(=N)N12,"inconclusive: 25.1 µM [inhibitor, single point]"
7,O=C(/C=C/c1ccc(S(=O)(=O)N2CCOCC2)cc1)Nc1cc(F)ccc1F,inactive
8,Cc1cc(NCCCO)n2nc(-c3cccs3)cc2n1,inactive
9,O=C(CN1CCCc2ccccc21)N/N=C/c1ccccc1O,"inconclusive: 22.4 µM [inhibitor, single point]"
10,Cc1cc(Br)cn2c(Cc3ccsc3)c(-c3ccco3)nc12,"inconclusive: 28.2 µM [inhibitor, single point]"
11,COc1ccc(CN2CSC(=S)N(Cc3ccc(OC)cc3)C2)cc1,"inconclusive: 35.5 µM [inhibitor, single point]"
12,CCC1(C)Cc2c(sc3c2c2ncnn2c2nnc(SCC(=O)NCc4ccco4)n32)CO1 (configuration not stated),"inconclusive: 22.4 µM [inhibitor, single point]"
13,Cc1ccc(S/C=C\C(=O)c2ccccc2)cc1,"inconclusive: 35.5 µM [inhibitor, single point]"
14,COc1cccc(NC(=O)CSc2c3c(nc4ccccc24)CCCC3)c1,"inconclusive: 25.1 µM [inhibitor, partial curve, poor fit]"
15,O=C(O)c1cc(-c2ccc(-c3ccc(F)cc3)o2)nc2ccccc12,"inconclusive: 22.4 µM [inhibitor, partial curve, poor fit]"
16,CSc1cccc(NS(=O)(=O)c2ccc3c(c2)oc(=O)n3C)c1,inactive
17,CC(=O)C1=C(S(=O)(=O)c2ccc(C)cc2)CS(=O)(=O)C1,"inconclusive: 31.6 µM [inhibitor, single point]"
18,COc1cc(OC)cc(-c2nnc(NC(=O)CCS(=O)(=O)c3ccc(F)cc3)o2)c1,"inconclusive: 20 µM [inhibitor, single point]"
19,COc1ccc(Cl)cc1NC(=O)c1cc(S(=O)(=O)N(C)Cc2ccccc2)ccc1F,inactive
20,CCOc1ccc(-c2cc(C(=O)NCCc3ccc(OC)c(OC)c3)c3c(-c4ccc(F)cc4)[nH]nc3n2)cc1,"inconclusive: 12.6 µM [inhibitor, partial curve, poor fit]"
21,CN(C)CCNC(=O)CNC(=S)N(Cc1ccccc1)Cc1cccnc1,inactive

row,Structure (SMILES),Potency
1,C=CCSc1nccc(-c2nn(-c3ccc(C)cc3)ccc2=O)n1,"inconclusive: 35.5 µM [inhibitor, single point]"
2,CCOC(=O)c1c(C)oc2c1c(C=NC1CCS(=O)(=O)C1)c(O)c1ccccc12 (configuration not stated),"inconclusive: 35.5 µM [inhibitor, single point]"
3,Cc1ccc(/C=C2/Sc3ccccc3N(CC(=O)NCC3CCCO3)C2=O)cc1 (configuration not stated),inactive
4,CN1CCN(c2ccc(NC(=O)COc3ccc4ccccc4c3)cc2)CC1,inactive
5,COc1ccc(/C=C/c2sc3ccccc3[n+]2CCCCI)cc1OC,inactive
6,O=C(O)c1ccc2c(=O)n3c(nc2c1)/C(=C/c1ccccc1OC(F)F)CC3,"inconclusive: 35.5 µM [inhibitor, single point]"
7,O=C(OCCN1C(=O)c2cccc3c(N4CCOCC4)ccc(c23)C1=O)c1cccc(Cl)c1,"inconclusive: 7.08 µM [inhibitor, full curve, poor fit]"
8,CCOC(=O)C(=Cc1ccccc1OC)C(=O)OCC,"inconclusive: 15.8 µM [inhibitor, partial curve, poor fit]"
9,COc1cc(C2Nc3ccccc3NC3=C2C(=O)CC(c2ccc(OC)c(OC)c2)C3)ccc1O (configuration not stated),inactive
10,CC[N+]1=C(C)C(C)(C)c2cc(C)ccc21,"inconclusive: 22.4 µM [inhibitor, single point]"
11,Cc1ccccc1-c1nc(C(=O)NCC2CCCO2)cc2c1[nH]c1ccccc12 (configuration not stated),inactive
12,Cn1c(=O)n(C)c2cc(S(=O)(=O)Nc3ccccc3O)ccc21,inactive
13,COc1ccc(/C=C/c2cc(C(F)(F)F)[nH]c(=O)n2)cc1OC,"inconclusive: 35.5 µM [inhibitor, single point]"
14,COc1ccc(C2=NOC(C(=O)NCc3cccs3)C2)cc1 (configuration not stated),"inconclusive: 7.94 µM [inhibitor, partial curve, poor fit]"
15,COc1ccc(-c2c(C(F)(F)F)[nH]n3c(=O)cc(-c4ccccc4)nc23)cc1,inactive
16,Nc1cc(=O)[nH]c(SCC(=O)Nc2cc(S(=O)(=O)N3CCCCCC3)ccc2Cl)n1,"inconclusive: 35.5 µM [inhibitor, partial curve, poor fit]"
17,CC(=O)Nc1ccccc1N(C)S(=O)(=O)c1ccc(C)cc1,"inconclusive: 10 µM [inhibitor, partial curve]"
18,Cn1c(-c2ccc3ccccc3n2)nc2cnccc21,"inconclusive: 11.2 µM [inhibitor, partial curve, poor fit]"
19,Cc1ccccc1NS(=O)(=O)c1ccc(N2CCCC2=O)cc1,"inconclusive: 3.16 µM [inhibitor, full curve]"
20,CCCN1CCc2c(sc(NC(=O)c3ccc(S(=O)(=O)N(C)c4ccccc4)cc3)c2C(N)=O)C1,"inconclusive: 11.2 µM [inhibitor, partial curve, poor fit]"
21,COc1ccc(-c2nc3cc(C)ccn3c2NC2CCCCC2)cc1SC1CCCCC1,"inconclusive: 15.8 µM [inhibitor, single point]"
